{
  "source": "PubChem BioAssay AID463173",
  "about": "(ICCB-Longwood Screening Facility, Harvard Medical School, 2010)",
  "note": "About 1,700 (3.3%) of roughly 52,000 compounds were called active. Rule as the data show it: active = survival mostly below about 52% (no sharp cut-off); inactive = mostly above about 56%. The list shows a part of the results.",
  "data": [
    {"system": "Wild type", "test": "S. aureus survival, RN4220 and DeltatarO strains – OD600, teichoic acid synthesis inhibitors, primary screen (AID 463173)", "conditions": "S. aureus RN4220 wild type/DeltatarO growth, OD600, 18 h, stronger effect = lower value, screened at 18.75 µg/mL (by protocol)", "values": [
      {"smiles": "COc1ccc2[nH]cc(S(=O)(=O)c3ccc(C)c(C)c3)c(=O)c2c1", "survival": "inactive: 87%"},
      {"smiles": "O=C(CCCCn1c(=O)c2ccccc2n(CC(=O)Nc2cccc(F)c2)c1=O)NCCc1ccccc1", "survival": "inactive: 93%"},
      {"smiles": "O=C(Cn1cc(I)c(=O)[nH]c1=O)N1CCOCC1", "survival": "inactive: 100%"},
      {"smiles": "CCc1ccc(NC(=O)Cn2cc(S(=O)(=O)N3CCCC3)c(S(=O)(=O)N3CCCC3)c2)cc1", "survival": "inactive: 65%"},
      {"smiles": "COc1ccc2oc(=O)c(-c3nc(-c4cccs4)no3)cc2c1", "survival": "inactive: 86%"},
      {"smiles": "Cc1ccc(NC(=O)Cn2nnc(C(=O)NCc3ccc4c(c3)OCO4)c2N)cc1Cl", "survival": "inactive: 101%"},
      {"smiles": "CC(C)NC(=O)CCN1C(=O)c2ccccc2Sc2ncccc21", "survival": "inactive: 90%"},
      {"smiles": "O=C(NC1CC(=O)N(c2ccc(F)cc2)C1)C1CC1", "note": "(stereo not given)", "survival": "inactive: 85%"},
      {"smiles": "Fc1ccc(-c2ccc(NCc3ccccc3)nn2)cc1", "survival": "inactive: 119%"},
      {"smiles": "Cc1cc(C)cc(NC(=O)CCCc2nc(-c3ccccc3Cl)no2)c1", "survival": "inactive: 82%"},
      {"smiles": "CSc1nc2sc3c(c2c(=O)n1-c1ccccc1)CCC(C(C)(C)C)C3", "note": "(stereo not given)", "survival": "active: 12%"},
      {"smiles": "Cc1ccc(NC(=O)C(C)Sc2nnc(C)n2C)cc1", "note": "(stereo not given)", "survival": "inactive: 103%"},
      {"smiles": "Cn1c(=O)n(CCCc2ccccc2)c(=O)c2c1nc1n2CCN1c1ccc(F)cc1", "survival": "inactive: 67%"},
      {"smiles": "CCOC(=O)c1cc2c(=O)n3ccccc3nc2n(Cc2ccco2)c1=NC(=O)c1ccc(OCC)cc1", "survival": "inactive: 69%"},
      {"smiles": "O=C(c1cc(-c2ccc(O)cc2)on1)N1CCN(c2ccccc2)CC1", "survival": "inactive: 51%"},
      {"smiles": "CCn1c(=O)cc(OCC(=O)N2CCN(c3ccc(F)cc3)CC2)c2ccccc21", "survival": "inactive: 78%"},
      {"smiles": "CCN(c1cccc(C)c1)c1ncnc2c1cnn2-c1cccc(Cl)c1", "survival": "inactive: 79%"},
      {"smiles": "CCCCOC(=O)c1ccc(NC(=O)c2cnc3ccc(C)cn3c2=O)cc1", "survival": "inactive: 91%"},
      {"smiles": "Cc1nn(C(=O)c2ccc(Br)cc2)c(C)c1Sc1ccccc1", "survival": "active: -4%"},
      {"smiles": "COc1cc(OC)c(N(C)C(=O)c2sc3nc4n(c(=O)c3c2C)CCCC4)cc1Cl", "survival": "inactive: 78%"},
      {"smiles": "CCOc1ccc(C/C(N)=N\\n2cnnc2)cc1", "survival": "inactive: 115%"},
      {"smiles": "COc1ccc(CN2COc3ccc4c(-c5ccccc5)cc(=O)oc4c3C2)cc1OC", "survival": "inactive: 94%"},
      {"smiles": "c1ccc2c3c(cc(N4CCOCC4)c2c1)OC1(N2CCOCC2)CCCCC1O3", "note": "(stereo not given)", "survival": "inactive: 115%"},
      {"smiles": "Cc1ccc(NC(=O)Cn2c(=O)n(Cc3nc(-c4ccccc4)no3)c(=O)c3cc4c(cc32)OCO4)c(C)c1", "survival": "inactive: 83%"},
      {"smiles": "Cc1nc(Nc2ccc(S(=O)(=O)N3CCCC3)cc2)c2nnn(Cc3ccccc3)c2n1", "survival": "inactive: 107%"},
      {"smiles": "CCOc1ccc2[nH]c3nc(SCC4CCCO4)nnc3c2c1", "note": "(stereo not given)", "survival": "inactive: 114%"},
      {"smiles": "O=C(NCc1ccccc1)c1cnc(N2CCCCC2)c2ccccc12", "survival": "inactive: 71%"},
      {"smiles": "COc1ccc(CCNC(=O)CSc2n[nH]c(-c3ccccc3Cl)n2)cc1OC", "survival": "inactive: 73%"},
      {"smiles": "COc1ccc(Cl)cc1NC(=O)CSC1=Nc2ccccc2C2=NC(CC(=O)NCc3cccs3)C(=O)N12", "note": "(stereo not given)", "survival": "inactive: 72%"},
      {"smiles": "Cc1ccc(NC(=O)C2=CC(c3ccc4c(c3)OCO4)=NS(=O)(=O)N2C)cc1", "survival": "inactive: 90%"},
      {"smiles": "CCc1ccc(-n2c(=O)c3cccnc3n2CC(=O)NCc2ccc(C)cc2)cc1", "survival": "inactive: 99%"},
      {"smiles": "COc1cccc(Nc2nc3ccc(C)cc3nc2-n2nc(C)cc2C)c1", "survival": "inactive: 82%"},
      {"smiles": "COc1ccc(Nc2c(-c3ccccn3)nc3ccc(Cl)cn23)cc1", "survival": "inactive: 96%"},
      {"smiles": "CCc1cccc(Nc2ncnc3onc(-c4ccc(F)cc4)c23)c1", "survival": "inactive: 112%"},
      {"smiles": "COC(=O)c1c(C)nn(-c2ccc(F)cc2)c1-n1cccc1", "survival": "inactive: 95%"},
      {"smiles": "Cc1ccc(C(c2sc3nc(-c4ccco4)nn3c2O)N2CCC3(CC2)OCCO3)cc1", "note": "(stereo not given)", "survival": "inactive: 70%"},
      {"smiles": "Cc1ccc(NC(=O)CSc2nc(-c3ccccc3Cl)nc3cc(=O)[nH]n23)c(C)c1", "survival": "inactive: 88%"},
      {"smiles": "COc1cccc(N2CCN(S(=O)(=O)c3ccc(-c4ccno4)cc3OC)CC2)c1", "survival": "inactive: 57%"},
      {"smiles": "O=C(Nc1ccccc1O)c1csc2c1CCCC2", "survival": "inactive: 114%"},
      {"smiles": "O=C(CSc1cn(CC(=O)N2CCCCC2)c2ccccc12)Nc1ccc(C(F)(F)F)cc1", "survival": "inactive: 99%"},
      {"smiles": "COc1ccc(OC)c(C2NC(=O)NC(C)=C2C(=O)Nc2ccc(F)cc2)c1", "note": "(stereo not given)", "survival": "inactive: 81%"},
      {"smiles": "CCOc1ccccc1C(=O)NC1CC2CCCC(C1)N2Cc1nnnn1Cc1ccco1", "note": "(stereo not given)", "survival": "inactive: 95%"},
      {"smiles": "O=C(CSc1nc(-c2ccc(F)cc2)cc(C(F)(F)F)n1)NCCc1ccccc1", "survival": "inactive: 89%"},
      {"smiles": "COc1ccc(NC(=O)c2ccco2)cc1NC(=O)COc1ccc(Cl)cc1C", "survival": "inactive: 85%"},
      {"smiles": "COc1cccc(N2CCN(C(=O)c3ccc(NC(=O)c4nsc5ccccc45)cc3)CC2)c1", "survival": "inactive: 57%"},
      {"smiles": "CCN(CC)CCNC(=O)c1sc2ncccc2c1-n1cccc1", "survival": "inactive: 99%"},
      {"smiles": "Cc1ccc(C(=O)NCc2ccc(F)cc2)cc1NC(=O)c1nsc2ccccc12", "survival": "inactive: 78%"},
      {"smiles": "Cn1cc(S(=O)(=O)c2ccccc2)c(=O)c2cc(F)c(N3CCCCCC3)cc21", "survival": "inactive: 143%"},
      {"smiles": "Cc1cc(C)cc(-n2c(SCC(=O)Nc3ccc4c(c3)OCCO4)nc3c([nH]c4ccccc43)c2=O)c1", "survival": "inactive: 131%"},
      {"smiles": "CC1=C(c2ccc(C)c(C)c2)S(=O)(=O)N=C1N1CCC(C(=O)NC(C)Cc2ccco2)CC1", "note": "(stereo not given)", "survival": "inactive: 75%"},
      {"smiles": "COc1ccc(CNC(=O)CCc2nc(-c3ccc(C)cc3)no2)c(OC)c1", "survival": "inactive: 120%"},
      {"smiles": "O=C(Nc1ccc2nc(SCC(=O)N3CCc4ccccc43)sc2c1)c1ccccc1F", "survival": "inactive: 129%"},
      {"smiles": "Cn1c(=O)n(C)c2cc(N3CCCCC3)c(NC(=O)c3ccc(C(C)(C)C)cc3)cc21", "survival": "inactive: 86%"},
      {"smiles": "CCCN1C2CCCC1CC(NC(=O)Nc1ccc(SC)cc1)C2", "note": "(stereo not given)", "survival": "inactive: 113%"},
      {"smiles": "COc1ccc(C)cc1-n1cnc2cc(C(=O)NC3CCCC3)ccc21", "survival": "inactive: 123%"},
      {"smiles": "COc1cc(C(=O)Nc2nonc2-c2ccc(C)c(C)c2)cc(OC)c1OC", "survival": "inactive: 88%"},
      {"smiles": "Cc1ccc(NC(=O)c2ccc(NC(=O)N3CCSc4ncccc43)cc2)c(C)c1", "survival": "inactive: 82%"},
      {"smiles": "Cc1cc(C)n2c(SCC(=O)N(C)C3CCCCC3)nnc2n1", "survival": "inactive: 101%"},
      {"smiles": "Cc1cc(C(=O)Nc2c(C)nc3ccccn3c2=O)ccc1[N+](=O)[O-]", "survival": "inactive: 101%"},
      {"smiles": "CCOc1ccc(/C=C/c2nc(C#N)c(NCCc3ccccc3)o2)cc1", "survival": "inactive: 86%"},
      {"smiles": "O=C(CSc1nc2c([nH]c3ccccc32)c(=O)n1-c1ccc(Cl)cc1)NCC1CCCO1", "note": "(stereo not given)", "survival": "inactive: 70%"},
      {"smiles": "Cc1ccccc1Nc1c(-c2cccs2)nc2cccc(C)n12", "survival": "inactive: 45%"},
      {"smiles": "CC1Cc2cc(S(=O)(=O)N(Cc3ccccc3)C(C)C)ccc2N1C(=O)C1CCC1", "note": "(stereo not given)", "survival": "inactive: 102%"},
      {"smiles": "COc1ccccc1NC(=O)Cn1c(=O)n(CCCCCC(=O)NCc2ccccc2)c(=O)c2sccc21", "survival": "inactive: 67%"},
      {"smiles": "CCOC(=O)c1c(C)oc2nc(C)nc(NCc3ccccc3OC)c12", "survival": "inactive: 70%"},
      {"smiles": "CC(=O)Nc1ccc(S(=O)(=O)NC2(C(F)(F)F)NC(=O)N(CCc3ccc(F)cc3)C2=O)cc1", "note": "(stereo not given)", "survival": "inactive: 137%"},
      {"smiles": "COc1cccc(C(=O)Nc2ccccc2-c2nnc(-c3cccc(OC)c3)o2)c1", "survival": "inactive: 64%"},
      {"smiles": "CCOc1cc(CNC(=O)Cn2c(-c3cccs3)cc3cc(F)ccc32)ccc1OC", "survival": "inactive: 72%"},
      {"smiles": "O=C1NC(=Nc2ccccc2)S/C1=C\\c1ccc(C(=O)O)cc1", "survival": "inactive: 113%"},
      {"smiles": "Cc1ccc(Cl)cc1NC(=O)CCC(=O)NCc1ccco1", "survival": "inactive: 113%"},
      {"smiles": "Cc1ccc(-n2c(SCC(N)=O)nc3c(oc4ccccc43)c2=O)cc1C", "survival": "inactive: 107%"},
      {"smiles": "CCOC(=O)Cc1cc(=O)n2[nH]c(-c3ccccc3)cc2n1", "survival": "inactive: 118%"},
      {"smiles": "COC(=O)C1=C(c2ccccc2)c2ccccc2S(=O)(=O)N1CC(=O)Nc1ccccc1Cl", "survival": "inactive: 61%"},
      {"smiles": "CCOC(=O)Cc1cc(=O)n2[nH]cc(C#N)c2n1", "survival": "inactive: 128%"},
      {"smiles": "COC(=O)C(C)Sc1cc(C)c2ccccc2n1", "note": "(stereo not given)", "survival": "inactive: 108%"},
      {"smiles": "CCOCCCn1c(=N)c(C(=O)NCC2CCCO2)cc2c(=O)n3cccc(C)c3nc21", "note": "(stereo not given)", "survival": "inactive: 79%"},
      {"smiles": "Cc1ccc(C)c(N2CCN(Cc3csc(C)c3)CC2)c1", "survival": "inactive: 107%"},
      {"smiles": "Cc1ccc(C)c(NC(=O)Cn2c(=O)n(Cc3ccccc3)c(=O)c3oc4ccccc4c32)c1", "survival": "inactive: 72%"},
      {"smiles": "CCCN(CCC)CCCNC(=O)Cn1cnc2sc(C)c(S(=O)(=O)N3CCC(C)CC3)c2c1=O", "survival": "inactive: 75%"},
      {"smiles": "O=C(Nc1cccc(F)c1)c1ccc(-c2ccccc2)s1", "survival": "inactive: 98%"},
      {"smiles": "O=C(c1cccs1)N1CCCc2cc(NS(=O)(=O)c3ccc(F)cc3F)ccc21", "survival": "inactive: 71%"},
      {"smiles": "COC(=O)C1CCN(S(=O)(=O)c2cc3c4c(c2)CC(=O)N4CCC3)CC1", "survival": "inactive: 32%"},
      {"smiles": "Cc1cccc2cc(CN(Cc3ccco3)Cc3nnnn3CCc3ccccc3)c(=O)[nH]c12", "survival": "inactive: 117%"},
      {"smiles": "Cc1cccc(NS(=O)(=O)c2ccc3c(c2)CCN3C(=O)C2CCC2)c1", "survival": "inactive: 69%"},
      {"smiles": "Cc1ccc(S(=O)(=O)c2cn(Cc3ccccc3Cl)c3ccc(F)cc3c2=O)cc1", "survival": "inactive: 98%"},
      {"smiles": "COc1ccc2c(c1)NC(c1cccnc1)=NC(c1ccc(F)cc1)=N2", "survival": "inactive: 90%"},
      {"smiles": "Cn1c(=O)c2c(nc(NCCN3CCOCC3)n2C)n(C)c1=O", "survival": "inactive: 109%"},
      {"smiles": "O=c1ccccn1Cc1cn2ccccc2n1", "survival": "inactive: 95%"},
      {"smiles": "COc1ccc(Br)cc1CNC(=O)c1ccc2c(c1)N(Cc1ccc(C)cc1)CCS2", "survival": "inactive: 87%"},
      {"smiles": "Cc1ccc(CN2C(=O)c3ccccc3Sc3ccc(C(=O)OCc4ccco4)cc32)cc1", "survival": "inactive: 73%"}
    ]}
  ]
}
